“And” between values parts separate entries of the source, which are not always exact repeats. Equal entries are not always repeated. Among all 270,000 compounds or so, about 5,800 (2.1%) were called active. The shares of active, inactive and inconclusive entries below differ from those in the screen. The call rests on the fitted dose curve; in most records, active means well fitted inhibition curve with a large enough effect; inconclusive means small, poorly fitted or top-dose-only effect; inactive means flat fitted curve, though single readings scatter. Potencies of inconclusive entries are doubtful fits and often do not repeat.
Biological target: Microtubule-associated protein tau (Homo sapiens) (UniProt P10636)
Sequence of UniProt P10636 (P10636 whole entry, looked up): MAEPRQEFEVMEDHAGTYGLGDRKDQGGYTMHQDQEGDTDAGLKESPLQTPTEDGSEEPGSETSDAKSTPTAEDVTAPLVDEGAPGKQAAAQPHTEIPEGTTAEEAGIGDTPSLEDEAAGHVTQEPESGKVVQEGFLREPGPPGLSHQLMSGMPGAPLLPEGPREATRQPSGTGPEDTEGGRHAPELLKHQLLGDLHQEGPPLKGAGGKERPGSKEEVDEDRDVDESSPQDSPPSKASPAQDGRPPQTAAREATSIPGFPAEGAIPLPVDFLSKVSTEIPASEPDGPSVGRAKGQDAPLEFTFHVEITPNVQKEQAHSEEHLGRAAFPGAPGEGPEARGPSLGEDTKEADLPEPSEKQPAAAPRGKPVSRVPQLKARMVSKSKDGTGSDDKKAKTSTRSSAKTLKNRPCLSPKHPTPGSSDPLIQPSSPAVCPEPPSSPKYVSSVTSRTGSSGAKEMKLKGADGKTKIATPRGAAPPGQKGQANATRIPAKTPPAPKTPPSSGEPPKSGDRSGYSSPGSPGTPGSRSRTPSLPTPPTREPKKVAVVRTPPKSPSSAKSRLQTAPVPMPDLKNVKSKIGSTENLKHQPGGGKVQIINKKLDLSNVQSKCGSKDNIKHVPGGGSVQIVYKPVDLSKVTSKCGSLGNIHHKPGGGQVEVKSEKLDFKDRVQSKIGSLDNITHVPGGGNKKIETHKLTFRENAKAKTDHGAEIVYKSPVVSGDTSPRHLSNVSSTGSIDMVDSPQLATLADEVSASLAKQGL
Assay: qHTS for Inhibitors of Tau Fibril Formation, Thioflavin T Binding; further: nearly all actives have a fitted effect of over 55% in size
Settings: recombinant tau K18 P301L (four-repeat tau fragment), heparin-induced fibrillization, ThT fluorescence; series mostly up to 57.4 µM
Outline: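 Aggregation was driven by heparin (20 uM final) acting on recombinant tau […] bearing P301L in 100 mM sodium acetate pH 7; fibrils were detected with Thioflavin T.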
On the % scale 0 is the no-effect control and ±100 the full control effect; potency means the concentration at half of the fitted maximal effect; tags describe the fitted curve by direction and shape.

SMILES | Potency | activity, negative = inhibition
O=C(Cc1csc2ccccc12)NCc1cccc(Br)c1 | inactive | 
Cc1noc(C)c1CSc1nc2ccccc2s1 | inconclusive: 20 µM [inhibitor, single point] | 
COc1cccc(N=Nc2c(N)[nH][nH]c2=O)c1 | inconclusive: 15.8 µM [inhibitor, partial curve] | 
COC(=O)c1ccc(N2NC(=O)/C(=C/c3ccc(-c4ccc(Cl)c(C(=O)O)c4)o3)C2=O)cc1 | active: 6.31 µM | 
COc1ccc(N2CCN(C(=O)CCS(=O)(=O)c3ccc(OC)cc3)CC2)cc1 | inconclusive: 25.1 µM [inhibitor, partial curve] | 
COc1ccc(S(=O)(=O)n2nc(OC(C)=O)cc2N)cc1 | inconclusive: 28.2 µM [inhibitor, single point] | 
O=C(c1cccs1)N(Cc1cccnc1)c1nc2ccc(F)cc2s1 | inactive | 
Cc1ccc(OCC(=O)Nc2ccccc2C(=O)OCc2cc(=O)n3nc(C4CC4)sc3n2)cc1 | inactive | 
CCCCC1(C)NC(=O)N(CC(=O)Nc2ccc(S(=O)(=O)N3CCOCC3)cc2)C1=O (stereo unspecified) | inactive | 
CC(=O)OC[C@@H]1O[C@@H](O/N=C2/C[C@@H](O)[C@@H](O)[C@@H]3[C@@H]4C(=O)N(C[C@@H]5CCCO5)C(=O)[C@H]4CC[C@@H]23)[C@H](OC(C)=O)[C@H](OC(C)=O)[C@@H]1OC(C)=O |  | inactive: -6.99% [at 11.5 µM]
Cc1c(C=O)c(=O)n(-c2ccccc2)n1-c1ccccc1 | inactive | 
Cc1cc(C)cc(N=c2c([N+](=O)[O-])nn(-c3ccc4c(c3)OCCO4)n2O)c1 | inconclusive: 17.8 µM [inhibitor, partial curve] | 
c1ccc(Nc2nc(-c3ccccn3)cs2)cc1 | inconclusive: 12.6 µM [inhibitor, partial curve] | 
CCOc1ccc(-c2csc(NNC3=NCCCCC3)n2)cc1 | active: 15.8 µM | 
CC(C)(C)OC(=O)N/N=C\c1ccc(OC(=O)c2ccco2)cc1 | inconclusive: 14.1 µM [inhibitor, partial curve] | 
Cc1ccccc1Cn1nc(C)c(NC(=O)c2noc3c2CC(C(C)(C)C)CC3)c1C (stereo unspecified) | inconclusive: 20 µM [inhibitor, partial curve] | 
O=C(/C=C/c1ccccc1)c1cccs1 | inconclusive: 10 µM [inhibitor, partial curve] | 
CCNC(=O)C(=O)N/N=C/c1cc([N+](=O)[O-])ccc1O | inconclusive: 15.8 µM [inhibitor, partial curve] | 
CCOc1ccc(NC(=O)c2sc3nc4c(cc3c2N)CCCCCC4)cc1 | inconclusive: 0.355 µM [inhibitor, partial curve, poor fit] | 
CN(Cc1ccco1)C(=O)C(Cc1ccccc1)NS(=O)(=O)c1ccc2c(c1)CCC(=O)N2 (stereo unspecified) | inconclusive: 35.5 µM [inhibitor, single point] | 
OCCN=c1cc(-c2ccccc2)oc2ccc(Cl)cc12 | inactive | 
CCOc1ccc2c(c1)-c1c(ssc1=S)C(C)(C)N2C(=O)c1ccco1 | inconclusive: 25.1 µM [inhibitor, partial curve] | 
O=c1[nH]c(/C(=N\O)c2ccccc2)no1 | inconclusive: 11.2 µM [inhibitor, partial curve, poor fit] | 
Cc1c(/C=N/NC(N)=O)c2ccccn2c1C(=O)c1ccc(F)cc1 | inconclusive: 17.8 µM [inhibitor, partial curve] | 

SMILES | Potency | activity, negative = inhibition
CCOC(=O)N1CCN(CC(=O)c2ccc3c(c2)CCN3C(C)=O)CC1 | inconclusive: 31.6 µM [inhibitor, partial curve] | 
Cc1cc(C)c2c(c1)-c1c(ssc1=S)C(C)(C)N2C(=O)CSc1nncn1C | inconclusive: 25.1 µM [inhibitor, single point] | 
CCOc1ccc(NC(=O)CCC(=O)NNS(=O)(=O)c2ccccc2[N+](=O)[O-])cc1 | inactive | 
COc1ccc(C(=O)NC(=S)NNC(=O)CCc2ccccc2)cc1 | inconclusive: 12.6 µM [inhibitor, partial curve] | 
CCOc1cc(CNc2ccc(CNc3ncn[nH]3)cc2)ccc1OCc1ccccc1 | inconclusive: 11.2 µM [inhibitor, partial curve] | 
CCn1c(=O)c(-[n+]2ccccc2)c(O)c2ccccc21 | inactive | 
Cc1[nH]oc(=O)c1N=Nc1ccccc1 | active: 25.1 µM | 
Cc1ccc(C(=O)/C=C/c2ccc3c(c2)OCCO3)c(O)c1 | active: 6.31 µM | 
N/C(=N\OC(=O)/C=C/c1ccccc1)c1ccc(Cl)cc1 | inconclusive: 0.708 µM [inhibitor, partial curve, poor fit] | 
Cn1c(O)c(N=NC(=O)c2ccccc2O)c2ccccc21 | active: 12.6 µM | 
CCCc1nn2c(=O)cc(COC(=O)c3cccc(NC(=O)CCc4ccccc4)c3)nc2s1 | inconclusive: 0.447 µM [inhibitor, full curve] | 
COc1ccc(N2CCN(CC(O)COC(C)(C)C)CC2)cc1 (stereo unspecified) | inactive | 
CCOC(=O)Nc1oc2ccccc2c(=O)c1CN1CCOCC1 | inconclusive: 20 µM [inhibitor, partial curve] | 
Oc1ccc(-c2nc3ccccn3c2Nc2ccc3c(c2)OCCO3)cc1 | inconclusive: 14.1 µM [inhibitor, partial curve] | 
O=C1C(Cl)=C(N2CCCCC2)C(=O)N1Cc1ccccc1 | inconclusive: 17.8 µM [inhibitor, single point] | 
Cc1ccc(CN(Cc2ccco2)C(=O)COc2c(C)cc(C)cc2C)cc1 | inconclusive: 8.91 µM [inhibitor, partial curve] | 
O=C(NC1CC2CCCC(C1)N2S(=O)(=O)c1ccccc1)C1CCCCC1 (stereo unspecified) | inactive | 
CCCN(CCC)CCCNC(=O)C1CCC(CNS(=O)(=O)c2cccc3nsnc23)CC1 (stereo unspecified) | inactive | 
CN1CCN(NS(=O)(=O)c2cccs2)CC1 | active: 12.6 µM | 
COC(=O)C/C=C\[C@H](C)[C@@H](OCc1ccccc1Br)C(C)C |  | inactive: -7.46% [at 11.5 µM]
COc1c(O)cc2oc(-c3ccc(O)cc3)cc(=O)c2c1O | inconclusive: 20 µM [inhibitor, partial curve] | 
CCn1cc(S(=O)(=O)c2ccc(OC)cc2)c(=O)c2cc(F)c(N3CCC(C)CC3)cc21 | inactive | 
CC(CC1C(C#N)=C(N)SC(N)=C1C#N)c1ccccc1 (stereo unspecified) | inconclusive: 15.8 µM [inhibitor, partial curve] | 
COc1ccc(-c2cc3nc(C)c(CCC(=O)N4CCN(c5ccccc5)CC4)c(C)n3n2)c(OC)c1 | inconclusive: 39.8 µM [inhibitor, single point] | 

SMILES | Potency | activity, negative = inhibition
C=CCn1c(-c2cccs2)nc2ccccc21 | inconclusive: 20 µM [inhibitor, partial curve] | 
Cc1c(CC(=O)NCc2ccccc2)c(=O)oc2c(C)c(O)ccc12 | inactive | 
O=c1c([N+](=O)[O-])c(N2CCCCCC2)c2ccccc2n1-c1ccccc1 | inactive | 
CCCCC(CC)CNC(=O)CCCc1nnc2n(CCC)c(=O)c3sccc3n12 (stereo unspecified) | inactive | 
CCOC(=O)C1=C(O)c2ccccc2C(=O)/C1=C\c1ccc(C)cc1 | active: 14.1 µM | 
CSCc1cc(N(C)C)nc(SCc2ccc(Cl)cc2Cl)n1 | inconclusive: 14.1 µM [inhibitor, partial curve, poor fit] | 
Cc1ccc(C)c(N2CCN(C(=O)Cn3c(=O)c4cccn4c4ccc(F)cc43)CC2)c1 | inconclusive: 39.8 µM [inhibitor, single point] | 
COc1ccc(NC(=O)CSc2nc3ccccc3[nH]2)cc1 | inconclusive: 11.2 µM [inhibitor, partial curve] | 
Cc1cccc(OCc2nc(C#N)c(NCc3ccccc3Cl)o2)c1 | inactive | 
Cc1ccc2nc(COc3ccc(NC(=O)COc4ccccc4F)cc3)cc(=O)n2c1 | inconclusive: 0.708 µM [inhibitor, full curve] | 
COc1ccc(-c2[nH]n(-c3ccc([N+](=O)[O-])cc3)c(=O)c2C=NCc2ccc(F)cc2)cc1 | inconclusive: 11.2 µM [inhibitor, partial curve] | 
N#Cc1c(NCCO)nc(NCc2ccccc2)c2c1CCN(Cc1ccccc1)C2 | inconclusive: 22.4 µM [inhibitor, partial curve] | 
O=C(Nc1ccc2c(c1)OCO2)C1CCN(S(=O)(=O)c2cccs2)CC1 | inconclusive: 25.1 µM [inhibitor, partial curve] | 
CC(=O)Nc1nonc1-c1nnc(SCc2ccc(F)cc2)n1C | inactive | 
Cc1cccc(C)c1NC(=O)COC(=O)c1cc(-c2cccnc2)nc2ccccc12 | inconclusive: 20 µM [inhibitor, single point] | 
O=C(COc1ccccc1Cl)Nc1nc2c(s1)CCCC2 | inconclusive: 15.8 µM [inhibitor, partial curve] | 
O=C(CSc1nc(C2CCCCC2)nc2ccccc12)NCc1ccc2c(c1)OCO2 | inactive | 
Cc1coc2c1C(=O)C(=O)c1c-2ccc2c1CCCC2(C)C | active: 4.47 µM and active: 14.1 µM | 
CC(C)c1ccc(S(=O)(=O)N2CCN(C(=S)NCc3ccco3)CC2)cc1 | inactive | 
O=[N+]([O-])c1cccc(-c2nnc(-c3ccc4c(c3)OCO4)o2)c1 | inconclusive: 3.16 µM [inhibitor, full curve] | 
O=C(CSc1nnc(SCc2ccc(Cl)cc2)s1)N/N=C/c1c[nH]c2ccccc12 | inactive | 
O=C(Nc1ccccc1F)c1ccc([N+](=O)[O-])s1 | inconclusive: 20 µM [inhibitor, partial curve] | 
O=C(Nc1cccc(F)c1)c1coc(=O)c(Br)c1 | inconclusive: 31.6 µM [inhibitor, single point] | 

— PubChem BioAssay AID1460 (National Center for Advancing Translational Sciences (NCATS), 2008)
